{"source": "PubChem BioAssay AID485344", "about": "(National Center for Advancing Translational Sciences (NCATS), 2010)", "note": "“And” between values parts separate entries of the source, which are not always exact repeats. Identical values can stand only once. Screen size: about 340,000 compounds; about 6,900 (2%) were called active. No stated cut-off is given here; in the data, active means inhibition above about 30%; inactive means below that, where a call was filed. The list shows a part of the results, in another mix than the full data. The source gives no active or inactive call for entries shown without one.", "data": [{"target": "D(2) dopamine receptor (Homo sapiens) (UniProt P14416)", "sequence (P14416 whole entry, looked up)": "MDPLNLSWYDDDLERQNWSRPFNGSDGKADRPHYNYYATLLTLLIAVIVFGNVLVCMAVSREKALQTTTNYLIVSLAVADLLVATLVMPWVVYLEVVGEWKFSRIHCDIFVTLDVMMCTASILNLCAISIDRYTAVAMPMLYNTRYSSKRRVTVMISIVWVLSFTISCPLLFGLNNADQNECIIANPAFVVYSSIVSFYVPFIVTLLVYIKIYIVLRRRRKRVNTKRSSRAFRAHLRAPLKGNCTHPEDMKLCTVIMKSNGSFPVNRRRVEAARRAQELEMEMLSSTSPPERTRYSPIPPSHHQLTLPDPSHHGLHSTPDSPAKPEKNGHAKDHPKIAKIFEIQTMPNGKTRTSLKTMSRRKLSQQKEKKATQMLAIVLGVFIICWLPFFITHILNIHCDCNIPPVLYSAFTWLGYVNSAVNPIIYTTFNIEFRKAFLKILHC", "assay": "HTS Assay for Allosteric Antagonists of the Human D2 Dopamine Receptor: Primary Screen for Antagonists; further: 0% is about no effect", "conditions": "HEK293 TREx D2 cells, calcium flux, dopamine EC80; at 10 µM; stronger effect = higher value", "method_in_brief": "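Antagonism is scored as inhibition of an EC80 dopamine-evoked calcium signal in a force-coupled, tetracycline-inducible HEK293 T-REx D2 line, with compound present 180 s before agonist.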", "values": [{"compound": "O=C1/C(=C/c2ccc(Cl)cc2)SC(=S)N1CCC(=O)N1CCCCC1CCO", "note": "(centres undefined)", "inhibition": "active: 31%"}, {"compound": "Cc1cn(C)c(CC(=O)N2CCN(c3ccc(F)cc3)CC2)c1C(=O)O", "inhibition": "1.01%"}, {"compound": "Cc1cc(NS(=O)(=O)c2c(C)[nH]c(=O)[nH]c2=O)ccc1Br", "inhibition": "active: 40.8%"}, {"compound": "Cc1ccc(NS(=O)(=O)c2ccc3c(c2)NC(=O)CCS3)cc1F", "inhibition": "3.19%"}, {"compound": "O=C(NCc1ccc2c(c1)CCN2C(=O)c1ccccc1)c1ccc(Br)o1", "inhibition": "12.4%"}, {"compound": "COc1ccccc1N1CCN(c2cc(C)nc3c(-c4ccc(Cl)cc4)c(C)nn23)CC1", "inhibition": "15.1%"}, {"compound": "COc1cccc(-c2[nH]c3c(c2-c2c(-n4cccc4)n(C)c(=O)[nH]c2=O)c(=O)[nH]c(=O)n3C)c1", "inhibition": "-9.99%"}, {"compound": "COCCOC(=O)C1=C(C)N=C2SCCC(=O)N2C1c1ccc(OCc2ccccc2)c(OC)c1", "note": "(centres undefined)", "inhibition": "6.32%"}, {"compound": "COCCCNc1nc2c(c(=O)n(C)c(=O)n2C)n1Cc1ccccc1", "inhibition": "6.68%"}, {"compound": "COCCNC(=O)CCSc1nc(-c2ccc3c(c2)OCO3)cc(C(F)(F)F)n1", "inhibition": "2.67%"}, {"compound": "CCOC(=O)/C=c1\\s/c(=C\\c2ccc3c(c2)OCCO3)c(=O)n1CC(=O)NCC1CCCO1", "note": "(centres undefined)", "inhibition": "active: 55%"}, {"compound": "CCc1nnc2c(NCc3cccc(OC)c3)nc3ccccc3n12", "inhibition": "5.5%"}, {"compound": "Cc1ccc(N2CC(c3nnc(Cc4ccccc4Cl)o3)CC2=O)cc1", "note": "(centres undefined)", "inhibition": "17%"}, {"compound": "COc1ccccc1Cc1nc2ccccc2nc1SCC(=O)Nc1ccccc1C(F)(F)F", "inhibition": "9.78%"}, {"compound": "COc1ccc(-c2nc3c(C#N)c[nH]n3c2NC2CCCC2)cc1", "inhibition": "6.01%"}, {"compound": "COc1ccc(S(=O)(=O)n2nc(-c3ccco3)nc2NCc2ccc(OC)c(OC)c2)cc1", "inhibition": "2.96%"}, {"compound": "COc1ccc(N(CC(=O)Nc2ccc3c(c2)OCO3)S(=O)(=O)c2ccc(C)cc2)cc1OC", "inhibition": "active: 54.3%"}, {"compound": "COc1ccc(N(C(=O)c2ccc(Cl)cc2)S(=O)(=O)c2ccc(C)cc2)cc1", "inhibition": "7.52%"}, {"compound": "CCC1CN(S(=O)(=O)c2ccc3c(c2)NC(=O)CC(=O)N3)c2cc(Cl)ccc2O1", "note": "(centres undefined)", "inhibition": "-4.34%"}, {"compound": "Cc1cccc(N2CCN(C(=O)CCC(=O)NNc3nc4ccccc4c4nc(C)nn34)CC2C)c1", "note": "(centres undefined)", "inhibition": "-7.76%"}, {"compound": "Cn1c(=O)c2c(-c3ccccc3Cl)n(Cc3ccc(Cl)cc3)cc2n(C)c1=O", "inhibition": "12.7%"}, {"compound": "COc1cc(C2c3c(-c4c(C)cc(C)cc4O)n[nH]c3C(=O)N2CCCOC(C)C)cc(OC)c1OC", "note": "(centres undefined)", "inhibition": "-20.1%"}, {"compound": "CCc1ccccc1NC(=O)CN1C(=O)COc2ccc(S(=O)(=O)Nc3ccccc3)cc21", "inhibition": "0.824%"}, {"compound": "CCc1ccccc1NC(=O)N1CCc2cc(OC)c(OC)cc2C1CC(=O)OC", "note": "(centres undefined)", "inhibition": "2.6%"}, {"compound": "O=C(COC(=O)c1ccc(O)cc1)Nc1ccc(OC(F)F)cc1", "inhibition": "active: 31.8%"}, {"compound": "Cc1ccc(NC(=O)Cn2c(=O)n(CCCS(=O)(=O)C3CCCCC3)c(=O)c3ccccc32)cc1F", "inhibition": "-8.45%"}, {"compound": "COc1ccc(S(=O)(=O)c2cc3cc(OC)ccc3oc2=O)cc1", "inhibition": "3.99%"}, {"compound": "CCOc1ccc(CNC(=O)c2cc3c(s2)-c2ccccc2OC3)cc1", "inhibition": "-21.9%"}, {"compound": "COc1cccc(-n2c(SCC(=O)N3CCCc4ccccc43)nc3c([nH]c4ccccc43)c2=O)c1", "inhibition": "-11.7%"}, {"compound": "COc1cc(NC(=O)NC(C)c2c(-n3cccc3)sc3c2CCN(C)C3)cc(OC)c1", "note": "(centres undefined)", "inhibition": "0.694%"}, {"compound": "COC1CCCCC1NS(=O)(=O)c1ccc(Cl)cc1", "note": "(centres undefined)", "inhibition": "active: 30.9%"}, {"compound": "CCCOc1ccc(CNC(=O)Cn2cc3c(n2)-c2c(oc(C(=O)N4CCOCC4)c2C)CC3)cc1", "inhibition": "-9.51%"}, {"compound": "CCc1ccc(S(=O)(=O)NCc2nc3cccnc3n2Cc2ccccc2Cl)cc1", "inhibition": "-5.4%"}, {"compound": "COc1ccc(Cl)cc1NC(=O)Cn1c(=O)n(CCCC(=O)NCCc2ccc(OC)c(OC)c2)c(=O)c2ccccc21", "inhibition": "-3.84%"}, {"compound": "O=C(NCCC1=CCCCC1)C1CCN(c2nnc(-n3cccc3)s2)CC1", "inhibition": "active: 47.8%"}, {"compound": "O=C(CCSCc1cccc(F)c1)NCc1ccccc1", "inhibition": "0.168%"}, {"compound": "CCOc1ccccc1NC(=O)C(=O)c1cc(C)n(-c2ccc(F)cc2)c1C", "inhibition": "-5.32%"}, {"compound": "CCOc1ccc(-n2cc(-c3ccccc3)c3c(N4CCC(C)CC4)ncnc32)cc1", "inhibition": "-21.4%"}, {"compound": "CCS(=O)(=O)c1nc(S(=O)(=O)c2ccc(C)cc2)c(NC(C)c2ccccc2)s1", "note": "(centres undefined)", "inhibition": "14.6%"}, {"compound": "COc1ccc(-c2nnc(Nc3ccc(OC)c(C(N)=O)c3)c3ccccc23)cc1", "inhibition": "8.94%"}, {"compound": "CCc1ccc2oc(-c3cccc(NC(=O)C(C)(C)Oc4ccc(Br)cc4)c3)nc2c1", "inhibition": "-1.95%"}, {"compound": "Cc1ccc(S(=O)(=O)c2nc(-c3ccc(F)cc3)oc2SCC(=O)c2ccccc2)cc1", "inhibition": "-9.67%"}, {"compound": "Cc1cc(C)cc(Nc2ncnc3onc(-c4ccc(F)cc4)c23)c1", "inhibition": "3.68%"}, {"compound": "O=S(=O)(c1ccc(Cl)cc1)c1nnn2c1nc(NCc1cccs1)c1sccc12", "inhibition": "-2.36%"}, {"compound": "CCOc1ccc(-n2c(=O)c3c4c(sc3n(CC(=O)NC(C)CC)c2=O)CCC4)cc1", "note": "(centres undefined)", "inhibition": "-3.41%"}, {"compound": "CN(C)S(=O)(=O)N(CC(=O)NCCSCc1cccc(Cl)c1)c1ccccc1", "inhibition": "19.9%"}, {"compound": "CCOC(=O)c1ccc(N2C(=O)c3n[nH]c(-c4cccs4)c3C2c2cccc(OC)c2)cc1", "note": "(centres undefined)", "inhibition": "-1.65%"}, {"compound": "O=C(CSC1=N/C(=C/c2ccc(Cl)c(Cl)c2)C(=O)N1c1ccccc1F)NC1CC1", "inhibition": "active: 52.1%"}, {"compound": "CCC(CC)C(=O)N1CCc2cc(OC)c(OC)cc2C1COc1ccc(C(=O)OC)cc1", "note": "(centres undefined)", "inhibition": "-13.6%"}, {"compound": "COc1ccc(C)cc1NC(=O)CSc1nc(=O)[nH]c2c1CCCC2", "inhibition": "-3.27%"}, {"compound": "COc1cccc(N2C(=O)CSC23C(=O)N(CC(=O)Nc2cccc(Cl)c2)c2ccccc23)c1", "note": "(centres undefined)", "inhibition": "9.76%"}, {"compound": "O=C(CSc1cn(CCNC(=O)c2ccccc2F)c2ccccc12)Nc1ccc(F)cc1", "inhibition": "18.6%"}, {"compound": "COc1cc(CN(C(=O)COc2ccccc2Cl)c2ccccn2)cc(OC)c1OC", "inhibition": "6.29%"}, {"compound": "COc1cccc(-n2c(-c3ccco3)nc3c(cnn3-c3ccc(Cl)cc3)c2=O)c1", "inhibition": "0.831%"}, {"compound": "CCn1c(C)c(C)c2cc(C(=O)N3CCN(c4cccc(C)c4C)CC3)ccc21", "inhibition": "-4.07% and active: 35.7%"}, {"compound": "CC(C)c1ccc(CNC(=O)c2ccc(N3CCCC3)c(NC(=O)NCc3ccc(F)cc3)c2)cc1", "inhibition": "-23.7%"}, {"compound": "COC(=O)c1c(SCC(=O)Nc2ccccc2C(F)(F)F)[nH]c2ccc(Cl)cc2c1=O", "inhibition": "8.42%"}, {"compound": "Cc1ccc(CNC(=O)CCc2c(C)c3cc4c(C)coc4cc3oc2=O)cc1", "inhibition": "16.2%"}, {"compound": "CCOc1ccc(/C=C(\\C#N)C(=O)Nc2sc3c(c2C(=O)OC)CCC3)cc1OC", "inhibition": "-0.596%"}]}]}
